Data as given in PubChem BioAssay AID624417 (National Center for Advancing Translational Sciences (NCATS), 2012).
Hit rate of the full screen: of about 410,000 compounds, about 6,400 (1.6%) were called active. Inconclusive results, whose numbers are uncertain, are shown with a selection of clear calls. Calls follow the shape of the dose curve; as a rule, active = well fitted inhibition curve with a large enough effect; inconclusive = small, poorly fitted or top-dose-only effect; inactive = no such curve, though single readings can be large or run the other way. A potency beside an inconclusive call is a rough fit, not a confirmed value.

The compounds below were run against Glucagon-like peptide 1 receptor (Homo sapiens) (UniProt P43220) (assay: qHTS of GLP-1 Receptor Inverse Agonists (Inhibition Mode)). Settings: HEK293 GLP-1R CRE-luciferase, luminescence, 24 h, GLP-1R form is constitutively active; activity change, negative = inhibition: at 38.3 µM (top of the series) unless noted.
Method in brief: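 HEK293 cells stably co-expressing a cAMP-responsive luciferase reporter and constitutively active GLP-1R were seeded, incubated 12 h, then exposed to compounds for 24 h at 37 C. Luminescence was read 12 min after detection reagent; inverse agonists lower signal.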
% is scaled to controls: 0 for no effect and ±100 for the full control effect; potency is read from the fitted curve at half-maximal effect; tags tell the direction and shape of the fitted curve.
Also: nearly all actives have a fitted effect of over 55% in size.

UniProt P43220, sequence (P43220 whole entry, looked up): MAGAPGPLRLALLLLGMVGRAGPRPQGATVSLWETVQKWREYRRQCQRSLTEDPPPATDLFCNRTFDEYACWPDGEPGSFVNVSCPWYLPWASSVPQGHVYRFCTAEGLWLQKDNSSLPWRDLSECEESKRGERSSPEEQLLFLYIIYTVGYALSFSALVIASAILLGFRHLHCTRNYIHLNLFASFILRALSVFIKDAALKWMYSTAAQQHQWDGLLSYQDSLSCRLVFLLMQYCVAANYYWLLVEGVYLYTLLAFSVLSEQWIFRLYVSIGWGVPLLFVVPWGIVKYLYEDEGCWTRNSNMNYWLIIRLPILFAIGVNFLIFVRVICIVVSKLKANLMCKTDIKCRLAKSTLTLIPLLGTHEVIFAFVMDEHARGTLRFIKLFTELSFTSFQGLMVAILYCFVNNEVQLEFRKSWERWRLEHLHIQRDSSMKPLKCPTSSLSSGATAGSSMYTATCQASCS

Potency, inactive:
COc1cc(C(=O)OCC(=O)NC(=O)NCc2ccccc2)ccc1OC(F)F, CCOC(=O)N1CCN(C(=O)C2CCN(S(=O)(=O)CC)CC2)CC1, NC(=O)c1cc(S(=O)(=O)NCc2cccs2)cs1, Cc1cn(C)c(CC(=O)Nc2cccc(C#N)c2)c1C(=O)O, CCCn1nnnc1NCc1ccc(N(CC)CC)cc1, O=c1ccc(S(=O)(=O)N2CCCC2)c[nH]1, COC(=O)c1sc(-c2ccccc2)cc1NC(C)=O, Cc1cn2c(=O)cc(COC(=O)c3ccc(NC(=O)c4ccccc4C)cc3)nc2s1, CS(=O)(=O)N(CC(=O)NCCSCc1c(F)cccc1Cl)c1ccc2c(c1)OCO2, COc1ccccc1C(=O)NCC(=O)N=Nc1c(O)n(C(C)C)c2ccccc12

Potency, active:
COc1ccc(-c2cc3nc(-c4ccccc4)cc(N4CCC(O)CC4)n3n2)cc1 7.94 µM

Potency, inconclusive:
COC(=O)c1cc(NC(=O)CN(c2ccc(OC)cc2)S(=O)(=O)c2ccc(F)cc2)ccc1Cl 14.1 µM [inhibitor, partial curve, poor fit], Nc1ccc(C(=O)N/N=C/c2cccc(Oc3ccccc3)c2)cc1 11.2 µM [inhibitor, partial curve, poor fit], COc1ccccc1NC(=O)Cc1csc(NC(=S)Nc2ccccc2)n1 8.91 µM [inhibitor, single point], CSc1cccc(CN2CCC(CO)(Cc3ccccc3)CC2)c1 22.4 µM [inhibitor, partial curve, poor fit], Cc1cccc(OCCNC(=O)c2ccc(Cl)c(S(=O)(=O)NCc3cccnc3)c2)c1 0.794 µM [inhibitor, full curve, poor fit], Cc1ccccc1OCCn1cc(C(=O)c2ccco2)c2ccccc21 28.2 µM [inhibitor, single point], Cc1ccccc1NC(=O)c1cccc(Cn2cc(Br)c([N+](=O)[O-])n2)c1 28.2 µM [inhibitor, single point], C#CCOCCOCCOCCNc1nc(N2CCN(C(=O)CCCCCCCCCCNC(=O)[C@H]([C@@H](C)CC)n3cc(CCCCCN)nn3)CC2)nc(N2CCN(C(=O)CCCCCCCCCCNC(=O)[C@@H]([C@H](C)O)n3cc(C)nn3)CC2)n1 28.2 µM [inhibitor, single point], COc1ccc([C@@H]2CC=C(C(=O)O)[C@H](c3cccc(Cl)c3)N2S(=O)(=O)c2ccccc2C)cc1 10 µM [inhibitor, partial curve], COCCNc1nc(NCCN2CCNC2=O)c2sc(-c3ccccc3)cc2n1 10 µM [inhibitor, single point], Cc1ccc2cccc(S(=O)(=O)N3CCN(c4ccccc4F)CC3)c2n1 22.4 µM [inhibitor, partial curve, poor fit], CCCOc1ccc(NC(=O)Cc2ccc(S(=O)(=O)N3CCOCC3)s2)cc1OCCC 10 µM [inhibitor, partial curve, poor fit], Cc1ccnc(NC(=O)Cc2c(F)cccc2Cl)c1 28.2 µM [inhibitor, single point], O=C(CN1C(=O)COc2ccc(S(=O)(=O)N3CCCCCC3)cc21)N1CCN(c2ccc(F)cc2)CC1 10 µM [inhibitor, partial curve], CCc1ccccc1NC(=S)N(CCN1CCCCC1)Cc1ccco1 7.94 µM [inhibitor, single point], O=C(Nc1cccc([N+](=O)[O-])c1)c1cc2ccccc2cc1O 1.78 µM [inhibitor, full curve, poor fit], COc1ccc(C(CNC(=O)c2oc3ccc(Br)cc3c2C)N2CCCCC2)cc1 (stereo not given) 2.24 µM [inhibitor, full curve, poor fit], Cc1cc(Cl)ccc1OC(C)C(=O)Nc1ccccc1N1CCOCC1 (stereo not given) 7.08 µM [inhibitor, partial curve, poor fit], CNC[C@H](CC1CCCCC1)NC[C@H](CO)NCCc1cccc(C(F)(F)F)c1 12.6 µM [inhibitor, single point], O=C(NC1CCc2ccccc21)C12CN(Cc3ccccc3)CC1C(c1cccc([N+](=O)[O-])c1)=NO2 (stereo not given) 10 µM [inhibitor, single point], Cc1ccccc1CS(=O)(=O)Cc1ccc(C(=O)NCCc2ccc(Cl)cc2)o1 28.2 µM [inhibitor, single point], Cc1ccc(S(=O)(=O)N2[C@@H](c3cccc(Cl)c3)C(C(=O)O)=CC[C@H]2c2ccc3c(c2)OCO3)cc1 15.8 µM [inhibitor, single point], Cc1cc(NS(=O)(=O)c2ccc(NC(=O)Nc3cccc(C(F)(F)F)c3)cc2)no1 12.6 µM [inhibitor, single point], COc1cc(OC)cc(C(=O)N/N=C(\C)CC(=O)Nc2ccccn2)c1 2.82 µM [inhibitor, partial curve, poor fit], NS(=O)(=O)c1ccc(NNC(=O)c2sccc2Cl)cc1 5.01 µM [inhibitor, partial curve], Fc1cccc(Cl)c1CSc1nnc(CN2CCOCC2)n1-c1ccccc1 10 µM [inhibitor, partial curve, poor fit], Nc1nonc1-n1nnc(C(=O)N/N=C/c2ccccc2Cl)c1COc1ccc(F)cc1 11.2 µM [inhibitor, partial curve], C=CCOC(=O)C1=C[C@H](C2CCCCC2)[C@@H](CCCO)[C@H](OCC)O1 10 µM [inhibitor, single point]

Activity change, negative = inhibition, inconclusive:
Cc1ccc2c(CN(C)Cc3cccc(Cl)c3)cc(=O)oc2c1C -44.9% [inhibitor]
